Measured values as given in the supplement of paper PMC6089552.
The campaign covered roughly 3,200 compounds. About 300 (9.4%) showed activity. Only a part is listed here, and it is no random draw.

System: A673/TR/shEF
Assay: cell viability (LOESS-normalised, relative to median of negative controls) (log2 ratio); higher = more viable cells (less compound effect), active = hit call of the paper (over 3 MAD below the median)
Settings: treatment time: 72 h
Summary of the method: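 For three days, A673/TR/shEF Ewing sarcoma cells in 384-well plates (1,500 per well) were treated with library compounds at two or more concentrations or with DMSO controls, after doxycycline had been added or withheld 24 h beforehand to induce EWS-FLI1 shRNA knockdown. Viability was read by CellTiter-Glo luminescence on an Envision reader. The data were LOESS-corrected per plate, divided by the median of negative controls and log2-transformed.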

[1] = 0.25 µM, library screen: screen1, EWS-FLI1 expression: high (no doxycycline)
[2] = 0.25 µM, library screen: screen1, EWS-FLI1 expression: low (doxycycline-induced shRNA knockdown)
[3] = 0.25 µM, library screen: screen2, EWS-FLI1 expression: high (no doxycycline)
[4] = 0.25 µM, library screen: screen2, EWS-FLI1 expression: low (doxycycline-induced shRNA knockdown)
[5] = 2.5 µM, library screen: screen1, EWS-FLI1 expression: high (no doxycycline)
[6] = 2.5 µM, library screen: screen1, EWS-FLI1 expression: low (doxycycline-induced shRNA knockdown)
[7] = 2.5 µM, library screen: screen2, EWS-FLI1 expression: high (no doxycycline)
[8] = 2.5 µM, library screen: screen2, EWS-FLI1 expression: low (doxycycline-induced shRNA knockdown)
[9] = 0.103 µM, library screen: screen3, EWS-FLI1 expression: high (no doxycycline)
[10] = 0.103 µM, library screen: screen3, EWS-FLI1 expression: low (doxycycline-induced shRNA knockdown)
[11] = 0.308 µM, library screen: screen3, EWS-FLI1 expression: high (no doxycycline)
[12] = 0.308 µM, library screen: screen3, EWS-FLI1 expression: low (doxycycline-induced shRNA knockdown)
[13] = 0.926 µM, library screen: screen3, EWS-FLI1 expression: high (no doxycycline)
[14] = 0.926 µM, library screen: screen3, EWS-FLI1 expression: low (doxycycline-induced shRNA knockdown)
[15] = 2.8 µM, library screen: screen3, EWS-FLI1 expression: high (no doxycycline)
[16] = 2.8 µM, library screen: screen3, EWS-FLI1 expression: low (doxycycline-induced shRNA knockdown)
[17] = 8.3 µM, library screen: screen3, EWS-FLI1 expression: high (no doxycycline)
[18] = 8.3 µM, library screen: screen3, EWS-FLI1 expression: low (doxycycline-induced shRNA knockdown)
[19] = 25 µM, library screen: screen3, EWS-FLI1 expression: high (no doxycycline)
[20] = 25 µM, library screen: screen3, EWS-FLI1 expression: low (doxycycline-induced shRNA knockdown)

Measured: cell viability (log2)

NCCCCN=C(N)N
inactive: [1] 0.0737 | [2] 0.063 | [3] 0.129 | [4] 0.0682 | [5] 0.15 | [6] 0.102 | [7] 0.175 | [8] 0.0262

CC(=O)Oc1ccccc1C(=O)O
inactive: [1] 0.0864 | [2] 0.103 | [3] -0.0224 | [4] 0.0553 | [5] 0.132 | [6] 0.124 | [7] 0.0414 | [8] 0.116

Cc1cc(=O)oc2cc(O)cc(O)c12
inactive: [1] 0.0986 | [2] 0.00891 | [5] 0.0982 | [6] 0.0904

O=C(O)[C@H]1NCCC[C@H]1C(=O)O
inactive: [3] 0.154 | [4] 0.0929 | [7] 0.154 | [8] 0.154

CC1=C(/C=C/C(C)=C/C=C/C(C)=C/C=C/C=C(C)/C=C/C=C(C)/C=C/C2=C(C)C(=O)[C@@H](O)CC2(C)C)C(C)(C)C[C@H](O)C1=O
inactive: [1] 0.129 | [2] 0.0523 | [3] -0.0189 | [4] 0.103 | [5] 0.147 | [6] 0.0156 | [7] 0.118 | [8] 0.123

COc1ccc2ccc(=O)oc2c1CC=C(C)C
inactive: [1] 0.0683 | [2] 0.00958 | [5] 0.0951 | [6] -0.0614

CC1(C)S[C@@H]2[C@H](NC(=O)[C@@H](NC(=O)N3CCNC3=O)c3ccccc3)C(=O)N2[C@H]1C(=O)O
inactive: [1] 0.122 | [2] 0.108 | [5] 0.0998 | [6] 0.128

COc1cc2c3cc1Oc1cc(ccc1O)C[C@@H]1c4c(cc(OC)c(O)c4Oc4ccc(cc4)C[C@@H]3N(C)CC2)CC[N+]1(C)C
inactive: [1] 0.0971 | [2] 0.0329 | [5] 0.0723 | [6] -0.0241

CC(=O)O[C@@H]1c2c(ccc3ccc(=O)oc23)OC(C)(C)[C@@H]1OC(=O)CC(C)C
inactive: [1] 0.0407 | [2] -0.0116 | [5] 0.121 | [6] 0.0173

CN1CCc2cc(Cl)c(O)cc2[C@@H](c2ccccc2)C1
inactive: [3] 0.102 | [4] 0.0596 | [7] 0.0549 | [8] 0.0194

Nc1ccc(N2C(=O)c3ccccc3C2=O)c(Cl)c1
inactive: [3] 0.208 | [4] 0.214 | [7] 0.0437 | [8] 0.148

CC1=C(C(=O)O)N2C(=O)[C@@H](NC(=O)[C@H](N)C3=CCC=CC3)[C@H]2SC1
inactive: [3] 0.206 | [4] 0.131 | [7] 0.143 | [8] 0.0524

N[C@@H](CCC(=O)N[C@@H](CS)C(=O)NCC(=O)O)C(=O)O
inactive: [1] 0.0494 | [2] 0.0411 | [5] 0.104 | [6] 0.0896

Cc1cc(Cl)ccc1OCC(O)CN1CCN(C)CC1 (stereo not drawn)
inactive: [1] 0.0377 | [2] 0.029 | [5] 0.0948 | [6] 0.184

NCCCCCCNS(=O)(=O)c1cccc2c(Cl)cccc12
inactive: [1] 0.066 | [2] 0.0556 | [3] 0.156 | [4] 0.0625 | [5] 0.0432 | [6] 0.0443 | [7] 0.141 | [8] 0.102

C[C@]12CC[C@@H]3c4ccc(O)cc4CC[C@H]3[C@@H]1CC[C@@H]2O
inactive: [9] 0.029 | [10] -0.00908 | [1] 0.122 | [2] 0.00576 | [3] 0.147 | [4] 0.0497 | [11] 0.101 | [12] 0.0915 | [13] 0.111 | [14] 0.0539 | [5] 0.0979 | [6] 0.0174 | [7] 0.0738 | [8] 0.0113 | [15] 0.127 | [16] 0.0786 | [17] 0.135 | [18] 0.0545 | [19] 0.166 | [20] 0.0719

CCCN(CCC)S(=O)(=O)c1ccc(C(=O)O)cc1
inactive: [1] 0.0518 | [2] 0.0728 | [5] 0.139 | [6] 0.185

OC[C@@H](O)C(O)[C@@H](O)CO (stereo partly drawn)
inactive: [1] 0.0295 | [2] -0.0327 | [5] 0.0906 | [6] 0.0422

CC(=O)[C@H]1CC[C@H]2[C@@H]3CCC4=CC(=O)CC[C@]4(C)[C@H]3CC[C@]12C
inactive: [9] 0.161 | [10] 0.011 | [1] 0.0842 | [2] 0.142 | [3] 0.133 | [4] 0.044 | [11] 0.16 | [12] 0.0729 | [13] 0.13 | [14] 0.0926 | [5] 0.103 | [6] 0.115 | [7] 0.0285 | [8] 0.0654 | [15] 0.163 | [16] 0.0887 | [17] 0.106 | [18] 0.113 | [19] 0.0847 | [20] 0.0844

CC(=O)N1CCN(c2ccc(OC[C@H]3CO[C@](Cn4ccnc4)(c4ccc(Cl)cc4Cl)O3)cc2)CC1
inactive: [9] 0.125 | [10] 0.0515 | [1] 0.0526 | [2] -0.0485 | [3] 0.189 | [4] 0.109 | [11] 0.078 | [12] 0.064 | [13] -0.0249 | [14] 0.0585 | [5] 0.211 | [6] 0.0029 | [7] -0.00521 | [8] 0.0303 | [15] -0.0229 | [16] 0.0304 | [17] 0.0791 | [18] 0.02 | [19] 0.147 | [20] -0.00206

COc1ccc2c(c1)CCC1=CC(=O)CCC12C (stereo not drawn)
inactive: [1] 0.119 | [2] 0.144 | [5] 0.0987 | [6] 0.126

CN(C)CC/C=C1/c2ccccc2Sc2ccc(Cl)cc21
inactive: [9] 0.104 | [10] 0.0714 | [1] 0.112 | [2] 0.137 | [3] 0.198 | [4] 0.0901 | [11] 0.123 | [12] 0.0894 | [13] 0.124 | [14] 0.09 | [5] 0.0435 | [6] 0.171 | [7] 0.097 | [8] 0.0847 | [15] 0.161 | [16] 0.0902 | [17] 0.0997 | [18] 0.106 | [19] 0.0217 | [20] 0.0665
